Results from the supplement of paper PMC3334620.
Whole data set: some 33,000 sequences, median “E-score (-0.5 to 0.5)” near -0.035, cut for the highest 2% near 0.35. The list shows a part of the results.

Molecular target: T1, Pdr3 (UniProt P33200)
T1 sequence: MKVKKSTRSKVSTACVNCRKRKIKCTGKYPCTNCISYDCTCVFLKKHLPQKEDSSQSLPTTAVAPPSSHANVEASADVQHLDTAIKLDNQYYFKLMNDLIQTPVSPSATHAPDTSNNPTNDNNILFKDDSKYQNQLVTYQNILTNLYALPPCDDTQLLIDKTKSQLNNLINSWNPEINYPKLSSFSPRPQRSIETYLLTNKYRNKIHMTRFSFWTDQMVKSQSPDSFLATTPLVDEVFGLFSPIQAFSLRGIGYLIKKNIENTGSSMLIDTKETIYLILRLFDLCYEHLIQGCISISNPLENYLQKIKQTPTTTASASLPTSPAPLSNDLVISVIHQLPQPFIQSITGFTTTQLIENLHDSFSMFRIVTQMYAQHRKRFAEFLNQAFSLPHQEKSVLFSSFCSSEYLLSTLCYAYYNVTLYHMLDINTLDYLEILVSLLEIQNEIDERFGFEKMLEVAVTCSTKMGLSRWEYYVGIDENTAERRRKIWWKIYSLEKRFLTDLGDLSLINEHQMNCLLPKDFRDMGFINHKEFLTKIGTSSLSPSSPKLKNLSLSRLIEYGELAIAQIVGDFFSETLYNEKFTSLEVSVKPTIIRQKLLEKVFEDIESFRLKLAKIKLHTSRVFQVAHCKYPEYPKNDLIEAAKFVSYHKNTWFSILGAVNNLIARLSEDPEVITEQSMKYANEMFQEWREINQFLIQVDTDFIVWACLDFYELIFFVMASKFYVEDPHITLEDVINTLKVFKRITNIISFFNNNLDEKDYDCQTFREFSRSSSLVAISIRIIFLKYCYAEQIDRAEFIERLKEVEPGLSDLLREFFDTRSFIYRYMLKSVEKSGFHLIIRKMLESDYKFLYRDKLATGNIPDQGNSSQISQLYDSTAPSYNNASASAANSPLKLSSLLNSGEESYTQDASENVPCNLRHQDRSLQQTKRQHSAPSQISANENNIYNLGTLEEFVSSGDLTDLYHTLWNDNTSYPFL
Experiment: PBM E-score (8-mer binding enrichment) (E-score (-0.5 to 0.5)); higher = stronger / more preferred TF binding; most listed sequences are background and not binding sites
Settings: protein concentration: 200 nM; construct: GST-full length
In short: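 For each ungapped eight-base word taken together with its reverse complement, the Universal PBM Analysis Suite assigned an E-score. Binding data came from GST-tagged yeast transcription factors, applied at about 100-200 nM, on universal all-10-mer Agilent arrays made double-stranded by primer extension. Fluorescent anti-GST marked bound protein, and scans were normalised with masliner.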

| Sequence | PBM E-score |
| --- | --- |
| AGTGCGGA | 0.377 |
| CAGAGCGC | -0.233 |
| AGATCCAT | -0.0187 |
| AAAATCGT | -0.169 |
| TAAACTTA | -0.229 |
| ATGGGAGA | -0.29 |
| CTGTTTCA | -0.142 |
| GGAGAACC | 0.164 |
| AGGCGCGG | 0.0455 |
| GTGCCAAC | -0.0172 |
| AGGAGGAA | -0.2 |
| ACCCAAGT | -0.00356 |
| ATACTGGG | -0.00887 |
| AACTAGTC | -0.117 |
| AACGATCG | 0.0619 |
| AAGCTTGG | -0.167 |
| ACGCCATG | -0.139 |
| CGCTGGTA | -0.18 |
| AACCACCT | 0.171 |
| CACGTCAA | -0.236 |
| ATATCCAT | -0.00671 |
| AATTGGTC | 0.145 |
| AGATCTAT | -0.249 |
| AGCGTGAC | -0.022 |
| CAGGAACC | -0.124 |

| Sequence | PBM E-score |
| --- | --- |
| CTCTTCCC | 0.0704 |
| AGCTCTTG | -0.197 |
| ATTAAAGG | 0.00041 |
| AGTGCTGA | -0.177 |
| ACGGCGGC | 0.0734 |
| CCCTTACC | -0.206 |
| ACGAACCG | 0.00965 |
| GAAACTTC | 0.00211 |
| ATCCGTCC | 0.225 |
| CGGGTACC | 0.258 |
| ATTTCCAC | 0.131 |
| GCCAGGCA | 0.0885 |
| CACCCTTA | -0.138 |
| ACGTCAAA | -0.154 |
| GTATGATA | 0.0443 |
| AGCCTAAT | -0.208 |
| AATATTAA | 0.244 |
| ATATATGA | -0.129 |
| AACAACGC | 0.0678 |
| CGGTCCAG | -0.0751 |
| ACGCTAGG | -0.296 |
| CTTTCGTA | -0.0604 |
| GACGTACC | -0.145 |
| CATGATGA | -0.187 |
| TACGCGAA | -0.0666 |

| Sequence | PBM E-score |
| --- | --- |
| AAGGCGGT | -0.0371 |
| AGGCTAGG | -0.306 |
| TTGCACAA | -0.166 |
| CGATCATC | 0.012 |
| AGCATGTG | -0.0452 |
| GGAACGTA | 0.136 |
| CGCGGAAG | 0.454 |
| GCATTGCC | -0.0563 |
| ACCGGTGC | 0.142 |
| AATAGTTC | 0.105 |
| AATAACTC | 0.0165 |
| CCGCTAAA | 0.144 |
| CCCAGCCC | -0.179 |
| AAGTATCG | -0.0468 |
| GGATCCAA | 0.25 |
| AAAGTTGC | -0.0111 |
| TACCGTCA | 0.0536 |
| TAGCTCAA | -0.152 |
| AGGGCCCC | -0.0783 |
| TGAGCGCA | -0.0403 |
| CGCCCAGA | -0.149 |
| ACCGTTTG | -0.104 |
| AGGGGTCC | -0.0897 |
| CCTGGCGA | -0.0667 |
| AATCCAGT | 0.179 |

| Sequence | PBM E-score |
| --- | --- |
| CAACAGGC | -0.208 |
| CCTTAGGA | -0.126 |
| TATTTCAA | -0.154 |
| AGGTCTTG | 0.00578 |
| AAGGGGGA | -0.0907 |
| ATTGTATA | 0.203 |
| TGGCAACA | -0.217 |
| CGGAGGAA | 0.268 |
| TGATTCAA | 0.0405 |
| CACATGGA | -0.158 |
| TCGCCCAA | -0.0429 |
| ATGAATAC | -0.0134 |
| CAACCGGG | 0.129 |
| TGTGATAA | -0.121 |
| AAGTGCAA | -0.155 |
| ATGAGGAC | -0.126 |
| GCCATCGC | -0.239 |
| AGATAATG | -0.037 |
| CGTTTGCC | 0.0664 |
| ATTATTAA | 0.126 |
| CACGCCGG | 0.302 |
| TGAAAAAA | 0.0176 |
| ACAATCGA | -0.155 |
| ACGCGCGG | 0.308 |
| CTCATAGA | -0.16 |

| Sequence | PBM E-score |
| --- | --- |
| TATACTGA | 0.179 |
| ACAAAGTG | -0.0193 |
| ATATCGGG | 0.143 |
| AATGAAGT | -0.0777 |
| TCAAATGA | -0.0624 |
| GCATACAA | 0.00355 |
| AACGGGAA | 0.354 |
| ACGTGTAG | -0.0709 |
| ACCACGTG | -0.071 |
| GCATCCCC | 0.112 |
| GGACTCTA | -0.111 |
| ACGGCGAG | 0.081 |
| TCCTAAGA | -0.101 |
| GTTGTAAA | -0.194 |
| ATATGATG | -0.0783 |
| AGGGCAGC | -0.0534 |
| AAACATGG | -0.125 |
| ATGCACAA | -0.0898 |
| ACCAGCGC | -0.153 |
| GCTTGATA | -0.112 |
| GAATAAAA | 0.0146 |
| CGTCGGTA | -0.0309 |
| AGTCACCC | -0.0284 |
| AGGTATTA | 0.0106 |
| ACTACTAG | 0.0119 |

| Sequence | PBM E-score |
| --- | --- |
| GCTTGCCA | -0.15 |
| AGCGCGCT | 0.216 |
| TCGGCGAA | 0.12 |
| ACTCTAAA | 0.033 |
| CTGAAGTC | 0.0005 |
| CATAATCG | 0.182 |
| ATTAAGTC | -0.179 |
| CTACCGCA | -0.0949 |
| AAGAGGTG | 0.0433 |
| GGTGACAA | 0.0857 |
| GCATCACC | -0.0935 |
| TTCCTAAA | -0.343 |
| AGGTGAGG | -0.133 |
| CCCGGCAA | 0.286 |
| GCCCTGCC | 0.0537 |
| AGAAGTCC | -0.088 |
| CTGAACGC | -0.131 |
| CAATACGC | -0.00732 |
| CCGGCCGG | 0.472 |
| AGGAACCT | 0.0199 |
| ATGTTATA | -0.2 |
| ATAGGCAA | -0.213 |
| ACTCGCTC | 0.0428 |
| GACTGTGA | -0.0864 |
| AGCCCATA | -0.0787 |

| Sequence | PBM E-score |
| --- | --- |
| CTAGATGC | 0.0149 |
| AGGATTCC | 0.223 |
| GGCCGCCA | 0.0352 |
| CCATCTCC | 0.155 |
| AGCTCTTA | -0.00706 |
| CCGCGTTA | 0.207 |
| ATCCAGTG | 0.079 |
| GCGCTCGA | 0.0416 |
| TAATTCTA | -0.109 |
| CTCCTGGA | -0.254 |
| GCCGGACA | 0.315 |
| ACGTCGGG | 0.138 |
| GATTAGGA | 0.0136 |
| CTCAGGAA | -0.0996 |
| AGTTTAAG | -0.233 |
| CTGAGACA | -0.184 |
| TTAAGCAA | -0.0988 |
| CGCAAAGC | 0.0757 |
| ACGAGGGA | -0.00861 |
| CTCCGAAA | 0.275 |
| GAGATGGA | 0.0859 |
| CAAGAACA | -0.149 |
